In all, about 310,000 compounds went through this assay and about 2,200 (0.71%) showed an effect of 50% or more. The effect is printed as a negative number. The list shows a part of the results.
Each molecule was assayed against human ether-à-go-go-related gene (hERG) potassium channel (human, UniProt Q12809) (assay: primary screen, population patch clamp on CHO cells stably expressing hERG).
Sequence of human ether-à-go-go-related gene (hERG) potassium channel (Q12809 whole entry, looked up): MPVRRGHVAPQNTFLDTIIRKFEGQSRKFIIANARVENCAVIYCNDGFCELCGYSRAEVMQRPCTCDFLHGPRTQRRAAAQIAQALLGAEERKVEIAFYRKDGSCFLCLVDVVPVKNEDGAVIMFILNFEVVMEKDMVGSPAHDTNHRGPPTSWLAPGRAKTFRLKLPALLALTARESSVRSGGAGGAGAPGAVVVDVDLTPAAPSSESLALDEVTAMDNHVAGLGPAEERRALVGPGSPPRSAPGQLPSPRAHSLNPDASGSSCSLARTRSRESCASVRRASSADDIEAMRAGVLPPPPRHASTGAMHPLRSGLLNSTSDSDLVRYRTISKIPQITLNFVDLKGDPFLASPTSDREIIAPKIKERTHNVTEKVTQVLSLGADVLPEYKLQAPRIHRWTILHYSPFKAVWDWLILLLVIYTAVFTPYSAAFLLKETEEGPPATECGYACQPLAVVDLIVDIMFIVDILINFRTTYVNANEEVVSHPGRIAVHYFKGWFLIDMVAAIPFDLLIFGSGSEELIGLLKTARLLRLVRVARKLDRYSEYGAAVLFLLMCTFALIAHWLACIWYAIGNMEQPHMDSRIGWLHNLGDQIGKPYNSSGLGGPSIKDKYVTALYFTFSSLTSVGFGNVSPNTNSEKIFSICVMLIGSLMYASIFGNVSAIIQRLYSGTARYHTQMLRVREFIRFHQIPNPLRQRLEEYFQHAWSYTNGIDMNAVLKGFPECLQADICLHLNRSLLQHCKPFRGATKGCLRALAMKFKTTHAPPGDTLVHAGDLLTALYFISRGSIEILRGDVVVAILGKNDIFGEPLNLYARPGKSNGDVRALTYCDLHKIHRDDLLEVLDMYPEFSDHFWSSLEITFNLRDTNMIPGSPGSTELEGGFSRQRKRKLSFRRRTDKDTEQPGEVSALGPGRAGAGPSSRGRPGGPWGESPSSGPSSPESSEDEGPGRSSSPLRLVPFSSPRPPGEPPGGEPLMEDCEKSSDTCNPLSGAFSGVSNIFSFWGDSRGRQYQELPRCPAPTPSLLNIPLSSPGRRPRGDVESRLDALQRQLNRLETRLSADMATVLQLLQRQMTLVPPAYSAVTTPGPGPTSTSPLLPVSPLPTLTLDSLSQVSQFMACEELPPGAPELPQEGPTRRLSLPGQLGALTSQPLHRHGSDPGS

| Structure (SMILES) | hERG current change (%, negative = inhibition) at 1uM [%] |
| --- | --- |
| COc1ccc(CCNC(=O)CNCC2CCCCC2)cc1OC.O=C(O)C(=O)O | 18.8 |
| CCCc1nnc(NC(=O)c2nc(S(=O)(=O)Cc3ccc(C)cc3)ncc2Cl)s1 | -5.38 |
| CCCCNC(=O)C1CCN(Cc2ccc(OCc3ccccc3)cc2)CC1.O=C(O)C(=O)O | -49.6 |
| OCc1nn2c(c1Br)NC(c1ccccc1)CC2C(F)(F)F (stereo not shown) | 11.8 |
| CS(=O)(=O)N(CC(=O)NCCC1=CCCCC1)c1ccc2c(c1)OCO2 | 7.58 |
| CSc1ccc(C(=S)N2CCN(Cc3ccccc3)CC2)cc1 | 8.06 |
| CCOc1ccccc1Nc1nnc(SCC(=O)Nc2cc(C)on2)s1 | 17.4 |
| CN(C(=O)COC(=O)c1ccccc1C(=O)N(C)c1ccccc1)c1ccccc1 | 5.29 |
| Cc1cc(C)n(-c2nnc(Cl)c3ccccc23)n1 | 11.9 |
| CCC1CCC(N2CCN(c3ccccc3F)CC2)CC1 (stereo not shown) | 4.59 |
| N#C[C@H]1C(O)C(O)c2ccccc2N1C(=O)c1ccccc1 (stereo partly shown) | 8.62 |
| CCO[C@@H]1OC(C(=O)N2CCN(Cc3ccccc3)CC2)=C[C@H](c2cn(C(C)=O)c3ccccc23)[C@H]1CCCO | 2.08 |
| COc1cccc(NC(=O)CSC2=C(C#N)C(c3ccco3)C3=C(CCCC3=O)N2)c1 (stereo not shown) | 1.14 |
| CCCCNC(=O)C1CC(=O)N(CCC(C)C)C1 (stereo not shown) | 3.84 |
| Cc1ccc(S(=O)(=O)N(CC(=O)NCc2ccc(F)cc2)C(=O)N2CCN(C)CC2)cc1 | 3.72 |
| COc1ccc(Cl)cc1S(=O)(=O)N1CCC(C(=O)NC2CCCC2)CC1 | -11.4 |
| CS(=O)(=O)c1ccc(SCC(=O)NC2CCS(=O)(=O)C2)c([N+](=O)[O-])c1 (stereo not shown) | -10.4 |
| COc1ccc(CCNC(=O)COc2nsnc2N2CCOCC2)cc1OC | -13.8 |
| Cc1cc(=O)oc2cc(OCC(=O)Nc3ccc(CN4CCOCC4)cc3)c(Cl)cc12 | 7.55 |
| Cc1c(C(=O)NCCN2CCOCC2)oc2ccc(S(=O)(=O)N3CCCCCC3)cc12 | 0.342 |
| COc1ccc(-c2cc(C#N)nc(N3CCN(C)CC3)n2)cc1 | -4.96 |
| O=C(Nc1cccc(C(=O)O)c1)/C(=C\c1ccccc1)NC(=O)c1ccccc1 | 15.3 |

| Structure (SMILES) | hERG current change (%, negative = inhibition) at 1uM [%] |
| --- | --- |
| O=C(CN1CCC(c2nc3ccccc3[nH]2)CC1)Nc1ccc2c(c1)OCO2 | 0.598 |
| O=C(NC1CCCCC1)C1CC(=O)N(c2ccc(Cl)cc2)C1 (stereo not shown) | 4.92 |
| O=C(CCn1nnc2ccccc2c1=O)N[C@H](C(=O)O)c1ccccc1 | 8.23 |
| O=C(NC1CCCC1)C(c1cccs1)N(C(=O)c1csnn1)c1ccccc1F (stereo not shown) | 17.5 |
| Cc1ccc(C(=O)Nc2nc3ccccc3n2CCN2CCCC2)cc1 | -19.5 |
| COc1ccc(CNC(=O)C(=O)NCC2OCCN2S(=O)(=O)c2ccc3c(c2)OCCO3)cc1 (stereo not shown) | 9.94 |
| COc1ccccc1NC(=O)C(=O)NCCC1CCCCN1S(=O)(=O)c1cccs1 (stereo not shown) | 13.2 |
| Cc1cnn(CCC(=O)NNC(=S)NCC(C)C)c1 | 0.673 |
| O=C(C1CCN(S(=O)(=O)c2ccccc2)CC1)N(CCc1ccccc1)Cc1ccco1 | 4.74 |
| CC1CC(C)CN(C(=O)COC(=O)Cc2ccc(Br)cc2)C1 (stereo not shown) | 12.4 |
| O=C(/C=C/c1ccco1)NCC1CCCO1 (stereo not shown) | 17.6 |
| C=CCn1c(SCCC(=O)O)nnc1-c1cccs1 | 11.5 |
| COc1ccc(C2(C(=O)NC(C)C)CCCC2)cc1OC | 5.98 |
| C#CCNC(=O)C1=C[C@@H](c2ccc3c(c2)OCO3)[C@H](CCCO)[C@@H](OCC)O1 | 16.2 |
| CCC(=O)Nc1cccc(NC(=O)c2cccc([N+](=O)[O-])c2)c1 | 0.202 |
| CCCC(=O)Nc1nnc(SCC(=O)Nc2nc(C)cs2)s1 | 12.2 |
| Cc1cc(C)c2c(-n3cccc3)c(C(=O)NNS(=O)(=O)c3ccc(Cl)cc3)sc2n1 | 15.8 |
| Cc1c(C)c2ccc(OCC(=O)N3CC[C@@]4(O)CCCC[C@H]4C3)cc2oc1=O | -4.56 |
| COc1cc2c(c(OC)c1OC)-c1c(cc(OC)c(OC)c1OC)C[C@H](C)[C@H](C)C2 | -22.5 |
| CCN(CC)CCCn1c(=S)[nH]c2cc(C(=O)OC)ccc2c1=O | -7.78 |
| CCCC(c1nnnn1CCOC)N1CCN(C(=O)c2ccco2)CC1.Cl (stereo not shown) | 0.283 |

— paper PMC4336329 (PLoS ONE, 2015)
